# Test results published in the supplement of paper PMC4723716.
# Several values for one entry are separate records, joined by “and”; a condition that tells them apart may be missing. Equal values may be shown once. ± gives the uncertainty stated by the source. In all, about 9,900 compounds were measured (“viability index relative to DMSO control”: median about 1, lowest 2% from about 0.85 on). This is one part of the list.
# Tested on: Plasmodium falciparum NF54 stage V gametocytes
# Experiment: viability index relative to DMSO control (fraction); higher = less gametocyte killing
# Conditions: 2.5 µM, incubation time: 72 h
# Procedure, shortened: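 P. falciparum NF54 stage V gametocytes in serum-free screening medium (0.75% gametocytemia, 1.25% hematocrit, 10 µl) were incubated with compound at 2.5 µM in 1,536-well plates for 72 hr at 37°C under low oxygen. Then 3 µl of 2.5 µM MitoTracker Red CMXRos plus 0.13% saponin was added for one to two hours. One field per well was imaged, 20–70 µm2 red particles were counted, and the viability index was the count divided by the plate mean of DMSO wells.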
# [1] = library set: Broad Institute DOS
SMILES,viability index [1],viability index (library set: Broad Institute Blood Stage)
CC(C)CC#Cc1ccc([C@@H]2[C@H](CO)N3C(=O)CN(C(=O)c4ccccn4)C[C@@H]23)cc1,1.1 ± 0.012,
N#C[C@@H]1[C@H](c2ccc(C3=CCCCC3)cc2)[C@H](CO)N1C(=O)CN1CCOCC1,1.14 ± 0.046,
CCS(=O)(=O)Nc1ccc2c(c1)C(=O)N(C)[C@@H]1CC[C@H](CC(=O)NCCCN3CCOCC3)O[C@H]1CO2,1.11 ± 0.11,
N#C[C@H]1[C@@H](c2ccccc2C2=CCCC2)[C@@H](CO)N1C(=O)C1CCOCC1,0.99 ± 0.092,
COc1ccc2c3c([C@@H](CO)N(C[C@]33CN(C)C3)C(=O)C3CCOCC3)n(C)c2c1,0.95 ± 0.12,
COc1ccc(C(=O)Nc2ccc3c(c2)C(=O)N(C)[C@@H]2CC[C@H](CC(=O)NCC4CC4)O[C@H]2CO3)cc1,0.937 ± 0.013,
C[C@H]1CN([C@@H](C)CO)S(=O)(=O)c2ccc(-c3ccc(F)cc3)cc2O[C@H]1CN(C)Cc1ccccc1C(=O)O,0.942 ± 0.079,
CN1CCN(C(=O)C[C@H]2CC[C@@H]3[C@H](COc4ccc(NC(=O)c5cccs5)cc4C(=O)N3C)O2)CC1,1.03 ± 0.034,
C[C@H]1CCCCO[C@H](CN(C)Cc2ccncc2)[C@@H](C)CN([C@@H](C)CO)C(=O)c2cc(NS(=O)(=O)c3ccc(Cl)cc3)ccc2O1,1.092 ± 0.0011,
COCC#Cc1ccc([C@H]2[C@@H](CO)N3C(=O)CN(C(=O)CN4CCOCC4)C[C@@H]23)cc1,1.09 ± 0.047,
COc1ccc(S(=O)(=O)Nc2ccc3c(c2)C(=O)N([C@H](C)CO)C[C@H](C)[C@H](CN(C)S(=O)(=O)c2ccc(Cl)cc2)OCCCC[C@@H](C)O3)cc1,1.08 ± 0.058,
O=C(C[C@@H]1C=C[C@H](NS(=O)(=O)c2ccccc2)[C@H](CO)O1)NCCN1CCCCC1,1.15 ± 0.1,
COc1cccc(S(=O)(=O)N2CCCCN3[C@H](C2)[C@H](c2ccc(C#CCC(C)C)cc2)[C@@H]3CO)c1,0.9833 ± 0.0041,
C[C@H](CO)N1C[C@H](C)[C@H](CN(C)CC2CCCCC2)OCc2cnnn2CCCC1=O,1.02 ± 0.075,
C[C@@H]1CN([C@@H](C)CO)C(=O)c2cccc(NC(=O)Nc3ccc4c(c3)OCO4)c2O[C@H]1CN(C)S(C)(=O)=O,0.946 ± 0.15,
COCC(=O)N1C[C@@]2(C1)CN(Cc1nccs1)[C@H](CO)c1c2c2ccc(OC)cc2n1C,1.03 ± 0.097,
O=C1CNC[C@H]2[C@H](c3ccc(C4=CCCC4)cc3)[C@@H](CO)N12,0.995 ± 0.044,
C[C@@H]1CN([C@@H](C)CO)C(=O)c2cccc(NC(=O)c3ccc(-c4nccs4)cc3)c2O[C@@H]1CN(C)C(=O)Nc1cccc2ccccc12,,0.784 ± 0.023
Cn1cnc(S(=O)(=O)N2C[C@@H](O)COC[C@H]3O[C@H](CC(=O)NCc4cccc(F)c4)CC[C@@H]32)c1,1.02 ± 0.084,
O=C(C[C@@H]1CC[C@H](NS(=O)(=O)c2ccc(F)cc2)[C@@H](CO)O1)N1CCN(c2ccccc2)CC1,1.17 ± 0.12,
Cc1noc(C)c1NC(=O)N(C)C[C@H]1OCc2cnnn2CCCC(=O)N([C@@H](C)CO)C[C@H]1C,0.968 ± 0.061,
C[C@H]1CN([C@@H](C)CO)C(=O)c2cc(-c3cccc(C(=O)N(C)C)c3)cnc2O[C@@H]1CN(C)C(=O)Cc1ccccn1,1.09 ± 0.015,
CO[C@@H]1CN(C)C(=O)c2cc(NC(C)=O)ccc2OC[C@H](C)N(C(=O)Cc2ccccn2)C[C@@H]1C,1.081 ± 0.0086,
CN(C)C(=O)c1ccc(-c2ccc([C@H]3[C@@H](C#N)N[C@@H]3CO)cc2)cc1,1.01 ± 0.22,

SMILES,viability index [1],viability index (library set: Broad Institute Blood Stage)
COCC(=O)N1C[C@]2(CN(Cc3ccc(Cl)cc3)C2)c2c([nH]c3cc(OC)ccc23)[C@H]1CO,1.01 ± 0.053,
Cc1noc(C)c1NC(=O)Nc1ccc2c(c1)C(=O)N([C@@H](C)CO)C[C@H](C)[C@@H](CN(C)Cc1ccc3c(c1)OCO3)OCCCC[C@H](C)O2,1.016 ± 0.0049,
O=C(N[C@H]1CC[C@@H](CCn2cc(-c3ccccc3F)nn2)O[C@H]1CO)c1ccc2c(c1)OCO2,1.1 ± 0.06,
Cc1noc(C)c1S(=O)(=O)Nc1ccc2c(c1)C(=O)N([C@@H](C)CO)C[C@@H](C)[C@@H](CN(C)C(=O)NC1CCCCC1)O2,1.097 ± 0.0047,
C/C=C/c1ccc([C@H]2[C@@H](CO)N3C(=O)CN(S(=O)(=O)c4ccccc4)C[C@@H]23)cc1,1.03 ± 0.031,
CCC(=O)N1[C@H](CO)[C@@H]2c3ccccc3N(C(=O)c3cnccn3)C[C@@H]21,0.908 ± 0.3,
Cc1cccc(S(=O)(=O)N2C[C@H]3[C@@H](c4ccccc42)[C@H](CO)N3CC2CCCC2)c1,0.994 ± 0.055,
Cc1ccc(S(=O)(=O)NCC[C@H]2CC[C@H](NC(=O)c3cccnc3)[C@@H](CO)O2)cc1,1.1 ± 0.066,
COc1ccc(-c2cn(CC[C@H]3CC[C@H](NC(=O)c4cnccn4)[C@H](CO)O3)nn2)cc1,1.13 ± 0.053,
O=C(CN1CCOCC1)N1CCCCN2[C@@H](CO)[C@@H](c3ccc(Br)cc3)[C@@H]2C1,0.986 ± 0.061,
O=C(C1CCC1)N1CC(=O)N2[C@@H](CO)[C@H](c3ccc(Br)cc3)[C@@H]2C1,0.978 ± 0.019,
O=C(CN1CCOCC1)N1C[C@@H]2N[C@H](C1)[C@@H]2c1ccc(-c2ccncc2)cc1,0.985 ± 0.094,
C[C@@H]1CCCCO[C@@H](CN(C)S(=O)(=O)c2ccccc2)[C@H](C)CN([C@@H](C)CO)C(=O)c2cc(NC(=O)Nc3ccc4c(c3)OCO4)ccc2O1,1.04 ± 0.043,
C[C@@H]1CCCCO[C@@H](CN(C)CC2CC2)[C@H](C)CN([C@H](C)CO)C(=O)c2cc(NC(=O)c3ccccc3)ccc2O1,1.05 ± 0.024,
CO[C@H]1CN(C)C(=O)c2ccc(NS(=O)(=O)c3c(C)noc3C)cc2OC[C@H](C)NC[C@H]1C,1.052 ± 0.0056,
CC(C)NC[C@@H]1[C@H](c2ccc(C3=CCCCC3)cc2)[C@H](CO)N1S(C)(=O)=O,0.996 ± 0.022,
O=C(C1CCOCC1)N1CC2(C1)[C@H](c1ccccc1)[C@@H](CO)N2C(=O)CC1CC1,1.11 ± 0.077,
O=C(C1CCOCC1)N1CC(=O)N2[C@H](CO)[C@@H](c3ccc(-c4cccnc4)cc3)[C@H]2C1,1.05 ± 0.16,
N#C[C@H]1N[C@@H](CO)[C@H]1c1ccc(C#Cc2ccccc2F)cc1,1.05 ± 0.012,
O=C(CC1CC1)N1CC2(C1)[C@H](c1ccccc1)[C@H](CO)N2C(=O)c1ccccn1,1.11 ± 0.076,
N#C[C@H]1[C@@H](c2ccccc2-c2ccccc2F)[C@@H](CO)N1C(=O)C1CCC1,1.15 ± 0.043,
C[C@H](CO)N1C[C@H](C)[C@@H](CN(C)C(=O)c2ccccc2)Oc2cc(-c3cccc(C#N)c3)ccc2S1(=O)=O,1.003 ± 0.0097,
COc1ccc(CN(C)C[C@@H]2Oc3ccc(NC(=O)Nc4ccc5c(c4)OCO5)cc3CC(=O)N([C@H](C)CO)C[C@@H]2C)cc1,0.983 ± 0.077,
O=C(CN1CCOCC1)N1C[C@@H]2N[C@H](C1)[C@H]2c1ccc(/C=C/c2ccccc2)cc1,1.1 ± 0.036,

SMILES,viability index [1],viability index (library set: Broad Institute Blood Stage)
CO[C@@H]1CN(C)C(=O)c2cc(NC(=O)NC(C)C)ccc2OC[C@@H](C)N(C(=O)CN(C)C)C[C@H]1C,1.02 ± 0.021,
COc1ccc(NC(=O)N(C)C[C@@H]2Oc3ccc(NC(=O)Nc4cccc5ccccc45)cc3CC(=O)N([C@@H](C)CO)C[C@H]2C)cc1,1.03 ± 0.033,
O=C(C1CCOCC1)N1CC(=O)N2[C@H](C1)[C@@H](c1ccc(-c3cccnc3)cc1)[C@@H]2CO,0.947 ± 0.014,
COc1ccc(S(=O)(=O)N2CC[C@H]3[C@H](CO)Nc4ccc(Br)cc4[C@H]32)cc1,1.099 ± 0.0089,
C[C@H](O)C#Cc1ccc([C@@H]2[C@@H](CO)N3CCCCN(CC4CC4)C[C@@H]23)cc1,1.01 ± 0.098,
CO[C@H]1CN(C)C(=O)c2ccc(NC(=O)Nc3ccccc3)cc2OC[C@H](C)N(C(=O)CC2CC2)C[C@H]1C,0.977 ± 0.067,
CCCC(=O)Nc1ccc2c(c1)C(=O)N(C)[C@@H]1CC[C@H](CC(=O)NCc3cccc(F)c3)O[C@@H]1CO2,0.9974 ± 0.0047,
O=C(c1ccc(F)cc1)N1CC(=O)N2[C@H](C1)[C@H](c1ccc(C#CCC3CCCC3)cc1)[C@@H]2CO,1.07 ± 0.016,
O=C(c1cccc(F)c1)N1CC(=O)N2[C@H](CO)[C@H](c3ccc(/C=C/c4ccccc4)cc3)[C@@H]2C1,1.05 ± 0.066,
O=C(c1ccccc1F)N1CC2(C1)[C@@H](c1ccccc1)[C@@H](CO)N2CC1CCOCC1,1.13 ± 0.089,
Fc1ccc(-c2ccc([C@@H]3[C@@H]4CN(Cc5ccccc5)C[C@H]3N4)cc2)cc1,0.956 ± 0.038,
COc1ccc2c3c([nH]c2c1)[C@H](CO)N(C[C@]31CCN(CC1)C(=O)NC(C)C)C(=O)c1ccc(F)cc1,1.05 ± 0.021,
O=C(C[C@H]1CC[C@H]2[C@@H](COC[C@@H](O)CN2C(=O)Nc2cccc(F)c2)O1)NCCCN1CCOCC1,1.06 ± 0.0087,
CC(C)(C)[S@@](=O)N1Cc2cc(C(=O)N3CCOCC3)nc(-c3cccc(-c4ccc(C#N)cc4)c3)c2[C@H]1CCO,1.07 ± 0.013,
O=C(CC1CC1)N1CC2(C1)[C@@H](c1ccccc1)[C@@H](CO)N2Cc1ccccn1,1.03 ± 0.062,
OC[C@@H]1[C@H](c2ccc(-c3ccc(F)cc3)cc2)[C@@H](CNC2CCCC2)N1CCC(F)(F)F,0.557 ± 0.096,
CO[C@H]1CN(C)C(=O)c2cc(NC(=O)c3ccc4c(c3)OCO4)ccc2OC[C@@H](C)N(CCC(F)(F)F)C[C@@H]1C,1.12 ± 0.14,
O=C(C1CCC1)N1CC(=O)N2[C@H](CO)[C@@H](c3ccc(Br)cc3)[C@@H]2C1,1.07 ± 0.026,
CN(C)C(=O)c1cccc(-c2cccc(-c3nc(C(=O)N4CCCCC4)cc4c3[C@H](CCO)N([S@@](=O)C(C)(C)C)C4)c2)c1,1.04 ± 0.0013,
CN1C(=O)c2cc(NC(=O)c3cccc(F)c3)ccc2OC[C@H]2O[C@@H](CC(=O)NCC3CCCCC3)CC[C@H]21,1.09 and 1.14,
COc1ccccc1-c1ccc2n(c1=O)C[C@@H]1[C@@H](CO)[C@H](C(=O)N3CCOCC3)[C@H]2N1CC1CC1,1.04 ± 0.016,
C[C@@H]1CCCCO[C@H](CN(C)C(=O)c2ccncc2)[C@@H](C)CN([C@H](C)CO)C(=O)c2cc(NS(=O)(=O)c3cccs3)ccc2O1,1.13 ± 0.017,
